“And” between values parts separate entries of the source, which are not always exact repeats. Identical values can stand only once. This is one part of the list. The main result of the screen is listed elsewhere. These columns were measured beside it and carry no call.
Key:
Assay in all cases: Primary Screen for Target Class Profiling of Small Molecule Inhibitors of Methyltransferases
[1] = target: Glycine N-methyltransferase (Homo sapiens) (UniProt Q14749); conditions: purified enzyme, MTase-Glo SAH luminescence; measured here: GNMT inhibition; at 40 µM; stronger effect = lower value
Procedure, shortened: (§1)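 Each enzyme was reacted with SAM and its substrate, with compounds tested once at 40 uM; SAH formed was read by MTase-Glo luminescence.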

[2] = target: Guanidinoacetate N-methyltransferase (Homo sapiens) (UniProt Q14353); conditions: purified enzyme, MTase-Glo SAH luminescence; measured here: GAMT inhibition; at 40 µM; stronger effect = lower value
Procedure, shortened: as §1

[3] = target: Histamine N-methyltransferase (Homo sapiens) (UniProt P50135); conditions: purified enzyme, MTase-Glo SAH luminescence; measured here: HNMT inhibition; at 40 µM; stronger effect = lower value
Procedure, shortened: as §1

[4] = target: Nicotinamide N-methyltransferase (Homo sapiens) (UniProt P40261); conditions: purified enzyme, MTase-Glo SAH luminescence; measured here: NNMT inhibition; at 40 µM; stronger effect = lower value
Procedure, shortened: as §1

[5] = target: Phenylethanolamine N-methyltransferase (Homo sapiens) (UniProt P11086); conditions: purified enzyme, MTase-Glo SAH luminescence; measured here: PNMT inhibition; at 40 µM; stronger effect = lower value
Procedure, shortened: as §1
% is set by controls: 0 for no effect and ±100 for the full control effect.

Row | SMILES | activity change, negative = inhibition [1] | activity change, negative = inhibition [2] [%] | activity change, negative = inhibition [3] | activity change, negative = inhibition [4] [%] | activity change, negative = inhibition [5] [%]
1 | O=C1CN(Cc2ccccc2F)S(=O)(=O)c2ccccc2N1Cc1ccc(Cl)cc1 | 7.34% | 0.54 | 3.3% | -3.3 | 3.29
2 | CCN1CCN(C(=O)c2ccc3nc(-c4cccc(C)n4)oc3c2)CC1 | -11.7% | -11.2 | -7.42% | -18.2 | -15.3
3 | CC(=O)N1c2ccc(-c3ccc(C(=O)O)cc3)cc2C(Nc2ccc(Cl)cc2)CC1C (stereo not given) | -26.6% and -1.69% | – | -10.1% and 3.84% | -29.6 | 12.3
4 | COc1ccc(-c2n[nH]n3c2nc(=O)c2ccc(C(=O)NCc4ccc(OC)cc4OC)cc23)cc1 | -13.2% | 3.74 | -1.51% | -3.56 | -2.14
5 | CCOC(=O)CC1(NC(=O)N2Cc3c(sc4c3CCCC4)-n3cccc3C2CC)CCCCC1 (stereo not given) | -8.98% | 0 | 5.95% | -7.14 | -13.4
6 | C=CCN1CCc2c(cc(O)c(O)c2Cl)C(c2ccccc2)C1 (stereo not given) | -39.7% | -0.537 | -24.4% | -14.1 | -0.068
7 | CSc1cccc(NS(=O)(=O)c2ccc3[nH]c4c(c3c2)CCCC4)c1 | 1.99% | 1.54 | 1.75% | -9.43 | 2.25
8 | O=C(O)C[C@H](O)C[C@H](O)/C=C/c1c(C2CC2)nc2ccccc2c1-c1ccc(F)cc1 | -13.3% | 6.84 | 7% | -33.6 | 5.92
9 | CCOC(=O)c1cc2n(n1)CC(C)(C(=O)NCc1ccccc1)N(Cc1cccc(CC)c1)C2=O (stereo not given) | -1.68% | 0.867 | 0.937% | 9.88 | -1.65
10 | CC1=C(C(=O)O)N2C(=O)[C@@H](NC(=O)C(N)C3=CCC=CC3)[C@H]2SC1 (stereo not given in full) | -14.1% | 7.92 | 2.35% | -0.033 | 8.32
11 | O=C(Cn1nc2n(Cc3ccccc3)c(=O)c3ccccc3n2c1=O)NC1CCCCC1 | 5.8% | 1.25 | 4.76% | -0.225 | 5.04
12 | CC(CNC(=O)Cn1ccc2cc(S(=O)(=O)N3CCCC3)ccc21)c1ccccc1 (stereo not given) | -0.14% | 1.71 | -6.94% | -4.42 | -18
13 | Cc1noc(CN(C)c2ncnc3ccc(-c4ccc5c(c4)OCO5)cc23)n1 | – | -22.7 | – | -47.6 | -49
14 | COc1ccc(OC)c(CCNC(=O)CCc2nnc3n(Cc4ccccc4Cl)c(=O)c4ccccc4n23)c1 | -3.98% | 3.91 | 1.73% | -5.68 | -2.51
15 | C=C1/C(=C/C=C2\CCC[C@]3(C)[C@@H]([C@@H](C)OCCC(O)(CC)CC)CC[C@@H]23)C[C@@H](O)C[C@@H]1O | -6.04% | 8.47 | 3.52% | -11.8 | -0.626
16 | Cc1cc(C)cc(Nc2nc(C)cc(=O)n2CC(=O)Nc2cccc(C(F)(F)F)c2)c1 | -11.2% | -1.67 | 0.621% | -3.33 | -2.92

Row | SMILES | activity change, negative = inhibition [1] | activity change, negative = inhibition [2] [%] | activity change, negative = inhibition [3] | activity change, negative = inhibition [4] [%] | activity change, negative = inhibition [5] [%]
17 | CCc1cc2c(cc3n2CC(C)(C(=O)NC2CCCCC2)N(CCCN2CCCCC2C)C3=O)s1 (stereo not given) | 5.13% | -0.307 | 4.75% | 14.4 | 4.1
18 | CSc1nc(N)cc(Oc2ccc(-c3nc(Nc4cccc(C(F)(F)F)c4)n[nH]3)cc2)n1 | – | 11.7 | – | -18 | 1.57
19 | COC(C)c1nc(C2CCOCC2)nn1Cc1ccc2c(c1)OCO2 (stereo not given) | -6.18% | -8.05 | -4.02% | -6.73 | -9.53
20 | Oc1ccc(C2CNCc3sccc32)cc1O (stereo not given) | -75.9% | 4.71 | -19.6% | -5.56 | 5.81
21 | COc1ccc(-c2nc3c(c(=O)[nH]2)CCN(C(=O)c2ccccc2)C3)cc1 | -8.08% | -7.54 | -2.42% | -12.7 | -7.36
22 | CCN1C(=O)c2cc3ccccc3n2CC1(C)C(=O)NCC(=O)NCc1ccccc1C (stereo not given) | -8.89% | 2.29 | -4.22% | -8.82 | -9.25
23 | COc1ccc(Cl)cc1S(=O)(=O)NC1COc2c(cccc2OC)C1 (stereo not given) | -4.82% | 3.47 | 4.83% | -1.15 | 0.435
24 | Cc1noc(C)c1[S+](=O)([O-])N1CCn2c(nn(-c3ccc(C(F)(F)F)cc3)c2=O)C1 | -5.8% | -4.36 | -1.38% | -6.9 | -54.8
25 | Cn1nc(C(=O)N2CCC3(CC2)CC(Cc2nc(C4CC4)no2)CCO3)c2ccccc21 (stereo not given) | -5.53% | 3.56 | -0.69% | 0.317 | 14.4
26 | CCCCN1C(=O)c2cc(C(=O)Nc3ccc(C(C)C)cc3)nn2CC1(C)C(=O)NC1CCCC1 (stereo not given) | -0.744% | 4.91 | -7.68% | -2.23 | 0.494
27 | C/C=C/C=C/C=C/C(=O)N(C)C(C(=O)NC(C)C(=O)N1CCCC1C(N)=O)C(C)C (stereo not given) | 0% | 5.68 | 9.64% | -4.83 | -4.77
28 | O=C(O)Cc1nn(Cc2nc3cc(C(F)(F)F)ccc3s2)c(=O)c2nccnc12 | -7.31% | -7.9 | 10.6% | -13.7 | 1.63
29 | CC(C)OCCCn1c(=O)c2ccccc2n2c(=O)n(CC(=O)Nc3cccc(F)c3)nc12 | 4.51% | 1.97 | 8.35% | 3.29 | 7.03
30 | CCc1ccccc1N1C(=O)N(Cc2cc(=O)n3ccccc3n2)c2ccccc2S1(=O)=O | – | -4.25 | – | -19.2 | -3.04
31 | CC1=C(/C=C/C(C)=C\C=C\C(C)=C/C(=O)O)C(C)(C)CCC1 | -30.4% | – | -1.85% | – | –

— PubChem BioAssay AID1745853 (National Center for Advancing Translational Sciences (NCATS), 2022)
